Source: paper PMC7645679
No constants are given. Whether binding was seen depends on the method and setting. For part of these data: Binding seen in cells or lysates may run through a third protein. Some binding calls cover weakened binding; strength is not graded here. Sequences can lack the tags named with a protein.

Key:
[1] = target: T1, human CTCF, GFP fusion (F3H) (human) (UniProt P49711); assay: fluorescent three-hybrid (F3H); GFP-tagged bait tethered to a LacO array by GFP nanobody–LacR in BHK-LacO cells; recruitment of mKate2-tagged prey read as Pearson correlation of green and red channels at the array; cells fixed 24 h after transfection
T1 sequence: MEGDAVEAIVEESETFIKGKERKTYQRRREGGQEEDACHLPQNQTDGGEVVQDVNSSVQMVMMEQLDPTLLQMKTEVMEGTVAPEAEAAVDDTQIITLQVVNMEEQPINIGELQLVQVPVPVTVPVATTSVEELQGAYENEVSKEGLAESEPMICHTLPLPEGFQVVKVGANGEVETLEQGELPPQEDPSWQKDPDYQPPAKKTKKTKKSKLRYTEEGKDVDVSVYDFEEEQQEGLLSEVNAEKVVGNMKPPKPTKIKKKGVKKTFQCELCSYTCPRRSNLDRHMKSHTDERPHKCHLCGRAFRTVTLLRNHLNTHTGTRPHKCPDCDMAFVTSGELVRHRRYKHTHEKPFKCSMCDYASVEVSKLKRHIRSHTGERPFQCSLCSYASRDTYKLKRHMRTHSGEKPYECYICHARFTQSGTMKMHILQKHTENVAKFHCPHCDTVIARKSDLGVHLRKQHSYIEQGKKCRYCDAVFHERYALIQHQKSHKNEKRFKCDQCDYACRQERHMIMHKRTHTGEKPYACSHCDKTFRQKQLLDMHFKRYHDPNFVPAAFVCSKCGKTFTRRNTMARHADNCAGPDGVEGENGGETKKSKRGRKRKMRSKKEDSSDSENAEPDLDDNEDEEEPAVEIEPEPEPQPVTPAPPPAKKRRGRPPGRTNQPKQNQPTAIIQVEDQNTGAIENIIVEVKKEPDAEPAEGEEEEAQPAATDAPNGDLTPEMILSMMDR

[2] = target: T2, SA1 (cohesin subunit), endogenous in mESCs (mouse (endogenous in mESCs)) (UniProt Q9D3E6); assay: co-IP; mESC nuclear extracts (benzonase, diluted to 200 mM NaCl), 500 μg, immunoprecipitated with anti-SA1 (Abcam ab4457) on Protein G beads; blots with anti-FLAG, anti-SA1, anti-RAD21, anti-SA2
T2 sequence: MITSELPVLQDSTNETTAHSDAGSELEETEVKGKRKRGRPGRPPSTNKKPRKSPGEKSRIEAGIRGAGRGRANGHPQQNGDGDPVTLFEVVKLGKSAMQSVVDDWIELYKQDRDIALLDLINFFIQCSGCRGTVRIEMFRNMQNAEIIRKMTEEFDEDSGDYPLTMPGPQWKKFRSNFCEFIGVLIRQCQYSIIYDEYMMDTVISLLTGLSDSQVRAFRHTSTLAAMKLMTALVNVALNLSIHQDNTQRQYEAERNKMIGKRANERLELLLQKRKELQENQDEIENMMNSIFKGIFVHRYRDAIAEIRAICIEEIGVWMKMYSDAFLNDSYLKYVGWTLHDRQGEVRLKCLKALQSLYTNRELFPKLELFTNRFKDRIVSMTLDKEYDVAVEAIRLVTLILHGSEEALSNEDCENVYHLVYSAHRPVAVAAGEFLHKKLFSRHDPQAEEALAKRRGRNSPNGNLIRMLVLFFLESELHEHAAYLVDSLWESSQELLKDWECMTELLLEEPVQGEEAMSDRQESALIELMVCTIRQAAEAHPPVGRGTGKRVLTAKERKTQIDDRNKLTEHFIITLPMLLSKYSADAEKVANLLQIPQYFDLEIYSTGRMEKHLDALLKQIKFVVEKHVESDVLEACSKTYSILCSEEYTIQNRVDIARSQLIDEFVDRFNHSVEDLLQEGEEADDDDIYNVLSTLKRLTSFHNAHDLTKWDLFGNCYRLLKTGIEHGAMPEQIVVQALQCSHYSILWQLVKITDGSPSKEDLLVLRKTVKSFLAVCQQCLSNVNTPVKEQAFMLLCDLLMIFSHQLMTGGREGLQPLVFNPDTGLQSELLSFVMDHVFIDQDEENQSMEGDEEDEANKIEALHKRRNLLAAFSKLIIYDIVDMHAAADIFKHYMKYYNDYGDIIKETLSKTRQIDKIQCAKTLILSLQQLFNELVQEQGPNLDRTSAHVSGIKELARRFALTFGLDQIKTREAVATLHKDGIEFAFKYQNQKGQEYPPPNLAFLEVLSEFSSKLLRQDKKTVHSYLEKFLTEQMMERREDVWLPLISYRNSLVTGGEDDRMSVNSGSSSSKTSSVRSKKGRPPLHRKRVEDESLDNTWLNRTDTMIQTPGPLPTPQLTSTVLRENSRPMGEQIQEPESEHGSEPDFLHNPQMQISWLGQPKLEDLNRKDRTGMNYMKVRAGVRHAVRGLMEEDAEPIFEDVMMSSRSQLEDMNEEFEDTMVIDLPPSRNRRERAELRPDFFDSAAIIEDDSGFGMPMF

[3] = target: T3, SA2 (cohesin subunit), endogenous in mESCs (mouse (endogenous in mESCs)) (UniProt O35638); assay: as above
T3 sequence: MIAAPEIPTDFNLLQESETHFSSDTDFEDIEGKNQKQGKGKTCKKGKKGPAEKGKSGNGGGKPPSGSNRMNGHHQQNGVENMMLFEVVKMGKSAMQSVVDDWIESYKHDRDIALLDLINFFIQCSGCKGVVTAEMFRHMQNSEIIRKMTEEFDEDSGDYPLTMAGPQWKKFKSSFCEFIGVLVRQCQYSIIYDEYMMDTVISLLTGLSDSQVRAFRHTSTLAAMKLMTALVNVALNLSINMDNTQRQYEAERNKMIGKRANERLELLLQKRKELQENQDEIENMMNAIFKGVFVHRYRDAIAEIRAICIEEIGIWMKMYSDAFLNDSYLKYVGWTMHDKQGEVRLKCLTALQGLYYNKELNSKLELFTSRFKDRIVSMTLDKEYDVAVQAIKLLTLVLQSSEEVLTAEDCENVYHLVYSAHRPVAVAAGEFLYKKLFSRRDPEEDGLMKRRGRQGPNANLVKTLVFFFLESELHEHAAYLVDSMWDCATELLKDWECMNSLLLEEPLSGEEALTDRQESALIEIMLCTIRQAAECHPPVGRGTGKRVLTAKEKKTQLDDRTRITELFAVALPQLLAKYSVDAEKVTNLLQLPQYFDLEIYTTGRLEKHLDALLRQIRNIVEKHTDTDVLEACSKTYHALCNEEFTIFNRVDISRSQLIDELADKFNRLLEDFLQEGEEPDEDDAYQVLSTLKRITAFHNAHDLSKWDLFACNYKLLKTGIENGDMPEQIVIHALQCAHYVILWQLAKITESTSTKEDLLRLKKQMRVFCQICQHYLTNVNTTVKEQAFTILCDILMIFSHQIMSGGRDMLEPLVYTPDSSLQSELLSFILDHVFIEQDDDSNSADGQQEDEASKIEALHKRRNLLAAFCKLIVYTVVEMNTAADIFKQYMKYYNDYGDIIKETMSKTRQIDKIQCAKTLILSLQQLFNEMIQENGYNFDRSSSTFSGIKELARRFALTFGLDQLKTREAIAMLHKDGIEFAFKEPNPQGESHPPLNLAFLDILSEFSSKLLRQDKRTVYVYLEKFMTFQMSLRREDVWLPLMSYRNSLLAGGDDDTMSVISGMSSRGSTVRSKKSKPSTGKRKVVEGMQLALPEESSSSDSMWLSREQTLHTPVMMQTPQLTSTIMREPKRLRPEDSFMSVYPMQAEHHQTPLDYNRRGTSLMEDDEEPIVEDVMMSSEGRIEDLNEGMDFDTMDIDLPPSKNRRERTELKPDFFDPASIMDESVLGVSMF

B1: human PDS5A, mKate2 fusion (protein, UniProt Q29RF7 1-1337)
chain: MDFTAQPKPATALCGVVSADGKIAYPPGVKEITDKITTDEMIKRLKMVVKTFMDMDQDSEDEKQQYLPLALHLASEFFLRNPNKDVRLLVACCLADIFRIYAPEAPYTSHDKLKDIFLFITRQLKGLEDTKSPQFNRYFYLLENLAWVKSYNICFELEDCNEIFIQLFRTLFSVINNSHNKKVQMHMLDLMSSIIMEGDGVTQELLDSILINLIPAHKNLNKQSFDLAKVLLKRTVQTIEACIANFFNQVLVLGRSSVSDLSEHVFDLIQELFAIDPHLLLSVMPQLEFKLKSNDGEERLAVVRLLAKLFGSKDSDLATQNRPLWQCFLGRFNDIHVPVRLESVKFASHCLMNHPDLAKDLTEYLKVRSHDPEEAIRHDVIVTIITAAKRDLALVNDQLLGFVRERTLDKRWRVRKEAMMGLAQLYKKYCLHGEAGKEAAEKVSWIKDKLLHIYYQNSIDDKLLVEKIFAQYLVPHNLETEERMKCLYYLYASLDPNAVKALNEMWKCQNMLRSHVRELLDLHKQPTSEANCSAMFGKLMTIAKNLPDPGKAQDFVKKFNQVLGDDEKLRSQLELLISPTCSCKQADICVREIARKLANPKQPTNPFLEMVKFLLERIAPVHIDSEAISALVKLMNKSIEGTADDEEEGVSPDTAIRSGLELLKVLSFTHPTSFHSAETYESLLQCLRMEDDKVAEAAIQIFRNTGHKIETDLPQIRSTLIPILHQKAKRGTPHQAKQAVHCIHAIFTNKEVQLAQIFEPLSRSLNADVPEQLITPLVSLGHISMLAPDQFASPMKSVVANFIVKDLLMNDRSTGEKNGKLWSPDEEVSPEVLAKVQAIKLLVRWLLGMKNNQSKSANSTLRLLSAMLVSEGDLTEQKRISKSDMSRLRLAAGSAIMKLAQEPCYHEIITPEQFQLCALVINDECYQVRQIFAQKLHKALVKLLLPLEYMAIFALCAKDPVKERRAHARQCLLKNISIRREYIKQNPMATEKLLSLLPEYVVPYMIHLLAHDPDFTRSQDVDQLRDIKECLWFMLEVLMTKNENNSHAFMKKMAENIKLTRDAQSPDESKTNEKLYTVCDVALCVINSKSALCNADSPKDPVLPMKFFTQPEKDFCNDKSYISEETRVLLLTGKPKPAGVLGAVNKPLSATGRKPYVRSTGTETGSNINVNSELNPSTGNRSREQSSEAAETGVSENEENPVRIISVTPVKNIDPVKNKEINSDQATQGNISSDRGKKRTVTAAGAENIQQKTDEKVDESGPPAPSKPRRGRRPKSESQGNATKNDDLNKPINKGRKRAAVGQESPGGLEAGNAKAPKLQDLAKKAAPAERQIDLQR
[1]
  binding: binds

B2: CTCF ΔC(577–614) transgene (FLAG, mRuby2) in mESCs (protein, UniProt Q61164)
chain: MEGEAVEAIVEESETFIKGKERKTYQRRREGGQEEDACHLPQNQTDGGEVVQDVNSSVQMVMMEQLDPTLLQMKTEVMEGTVAPEAEAAVDDTQIITLQVVNMEEQPINIGELQLVQVPVPVTVPVATTSVEELQGAYENEVSKEGLAESEPMICHTLPLPEGFQVVKVGANGEVETLEQGELPPQEDSSWQKDPDYQPPAKKTKKTKKSKLRYTEEGKDVDVSVYDFEEEQQEGLLSEVNAEKVVGNMKPPKPTKIKKKGVKKTFQCELCSYTCPRRSNLDRHMKSHTDERPHKCHLCGRAFRTVTLLRNHLNTHTGTRPHKCPDCDMAFVTSGELVRHRRYKHTHEKPFKCSMCDYASVEVSKLKRHIRSHTGERPFQCSLCSYASRDTYKLKRHMRTHSGEKPYECYICHARFTQSGTMKMHILQKHTENVAKFHCPHCDTVIARKSDLGVHLRKQHSYIEQGKKCRYCDAVFHERYALIQHQKSHKNEKRFKCDQCDYACRQERHMIMHKRTHTGEKPYACSHCDKTFRQKQLLDMHFKRYHDPNFVPAAFVCSKCGKTFTRRNTMARHADNNAEPDLDDNEEEEEPAVEIEPEPEPQPQPPPPPQPVAPAPPPAKKRRGRPPGRTNQPKQNQPTAIIQVEDQNTGAIENIIVEVKKEPDAEPAEGEEEEAQAATTDAPNGDLTPEMILSMMDR
[2]
  binding: binds
[3]
  binding: binds
